{"source": "the supplement of paper PMC8728848", "binders": {"B1": {"name": "Pwp3 (Candida glabrata) (protein)", "chain": "MGSSHHHHHHSSGLVPRGSHMASKNPVDFTTVCQFPDNFSKKPGFLATTARLGLWITGNSYKELLNYPGTFTLTTQQASTTTPNIQLRGTDLFTTIYGLTVYPLYLLVELQGYFVPTQSGMYTFSLTGSDDAAIIFIGNPSTFPCDAFKTWPQATANDITVTDSINPSRTLYMVKGVAYPLRIAYYNGLGNGVLNAAFTDPSGTKRTDWNGYIWQYDQCSTCTYK"}}, "test_in_all_cases": "glycan array binding signal (z-score within array); higher = stronger binding", "conditions_in_all_cases": "glycan notation: IUPAC condensed, linker removed", "key": {"[1]": {"molecular_target": "Gal3S(b1-4)Glc", "method_in_brief": "(§1)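 Glycan array data came from 3228 arrays in the Consortium for Functional Glycomics database, and only arrays with an available protein sequence were kept. Glycan names were put into IUPAC-condensed notation, and columns mapping to the same glycan were averaged. The binding signal is a within-array Z-score, averaged across arrays of one protein sequence run at different concentrations or buffers and across linkers. A negative Z-score can be read as non-binding.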"}, "[2]": {"molecular_target": "Gal3S(b1-4)Glc6S", "method_in_brief": "as §1"}, "[3]": {"molecular_target": "Gal3S(b1-4)GlcNAc", "method_in_brief": "as §1"}, "[4]": {"molecular_target": "Gal3S(b1-4)[Fuc(a1-3)]Glc6S", "method_in_brief": "as §1"}, "[5]": {"molecular_target": "Gal3S(b1-4)[Fuc(a1-3)]GlcNAc", "method_in_brief": "as §1"}, "[6]": {"molecular_target": "Gal3S(b1-4)[Fuc(a1-3)]GlcNAc6S", "method_in_brief": "as §1"}, "[7]": {"molecular_target": "Gal3S4S(b1-4)GlcNAc", "method_in_brief": "as §1"}, "[8]": {"molecular_target": "Gal3S6S(b1-4)GlcNAc", "method_in_brief": "as §1"}, "[9]": {"molecular_target": "Gal3S6S(b1-4)GlcNAc6S", "method_in_brief": "as §1"}, "[10]": {"molecular_target": "Gal4S(b1-4)GlcNAc", "method_in_brief": "as §1"}, "[11]": {"molecular_target": "Gal4S6S(b1-4)GlcNAc", "method_in_brief": "as §1"}, "[12]": {"molecular_target": "Gal6P(b1-4)GlcNAc", "method_in_brief": "as §1"}, "[13]": {"molecular_target": "Gal6S(b1-3)GlcNAc", "method_in_brief": "as §1"}, "[14]": {"molecular_target": "Gal6S(b1-3)GlcNAc6S", "method_in_brief": "as §1"}, "[15]": {"molecular_target": "Gal6S(b1-4)Glc", "method_in_brief": "as §1"}, "[16]": {"molecular_target": "Gal6S(b1-4)Glc6S", "method_in_brief": "as §1"}, "[17]": {"molecular_target": "Gal6S(b1-4)GlcNAc", "method_in_brief": "as §1"}, "[18]": {"molecular_target": "Gal6S(b1-4)GlcNAc6S", "method_in_brief": "as §1"}, "[19]": {"molecular_target": "GalNAc(a1-3)Gal", "method_in_brief": "as §1"}, "[20]": {"molecular_target": "GalNAc(a1-3)GalNAc", "method_in_brief": "as §1"}, "[21]": {"molecular_target": "GalNAc(a1-3)GalNAc(b1-3)Gal(a1-4)Gal(b1-4)Glc", "method_in_brief": "as §1"}, "[22]": {"molecular_target": "GalNAc(a1-3)GalNAc(b1-3)Gal(a1-4)Gal(b1-4)GlcNAc", "method_in_brief": "as §1"}, "[23]": {"molecular_target": "GalNAc(b1-3)Gal", "method_in_brief": "as §1"}, "[24]": {"molecular_target": "GalNAc(b1-3)Gal(a1-4)Gal(b1-4)GlcNAc", "method_in_brief": "as §1"}, "[25]": {"molecular_target": "GalNAc(b1-3)Gal(a1-4)Gal(b1-4)GlcNAc(b1-3)Gal(b1-4)Glc", "method_in_brief": "as §1"}, "[26]": {"molecular_target": "GalNAc(b1-3)Gal(a1-6)Gal(b1-4)Glc", "method_in_brief": "as §1"}, "[27]": {"molecular_target": "GalNAc(b1-3)GalNAc", "method_in_brief": "as §1"}, "[28]": {"molecular_target": "GalNAc(b1-3)GlcNAc", "method_in_brief": "as §1"}, "[29]": {"molecular_target": "GalNAc(b1-4)Gal(b1-4)Glc", "method_in_brief": "as §1"}, "[30]": {"molecular_target": "GalNAc(b1-4)GlcNAc", "method_in_brief": "as §1"}, "[31]": {"molecular_target": "GalNAc(b1-4)GlcNAc(b1-2)Man", "method_in_brief": "as §1"}, "[32]": {"molecular_target": "GalNAc(b1-4)GlcNAc(b1-2)Man(a1-3)[GalNAc(b1-4)GlcNAc(b1-2)Man(a1-6)]Man(b1-4)GlcNAc(b1-4)GlcNAc", "method_in_brief": "as §1"}, "[33]": {"molecular_target": "GalNAc(b1-4)GlcNAc(b1-3)GalNAc(b1-4)GlcNAc", "method_in_brief": "as §1"}, "[34]": {"molecular_target": "GalNAc(b1-4)GlcNAc6S", "method_in_brief": "as §1"}, "[35]": {"molecular_target": "GalNAc(b1-6)GalNAc", "method_in_brief": "as §1"}, "[36]": {"molecular_target": "GalNAc3S(b1-4)GlcNAc", "method_in_brief": "as §1"}, "[37]": {"molecular_target": "GalNAc3S(b1-4)GlcNAc3S", "method_in_brief": "as §1"}, "[38]": {"molecular_target": "GalNAc3S(b1-4)[Fuc(a1-3)]GlcNAc", "method_in_brief": "as §1"}, "[39]": {"molecular_target": "GalNAc4S6S(b1-4)GlcNAc", "method_in_brief": "as §1"}, "[40]": {"molecular_target": "GalNAc6S(b1-4)GlcNAc", "method_in_brief": "as §1"}, "[41]": {"molecular_target": "Glc(a1-4)Glc", "method_in_brief": "as §1"}, "[42]": {"molecular_target": "Glc(a1-4)Glc(a1-4)Glc(a1-4)Glc", "method_in_brief": "as §1"}, "[43]": {"molecular_target": "Glc(a1-6)Glc(a1-6)Glc", "method_in_brief": "as §1"}, "[44]": {"molecular_target": "Glc(a1-6)Glc(a1-6)Glc(a1-6)Glc", "method_in_brief": "as §1"}, "[45]": {"molecular_target": "Glc(b1-4)Glc", "method_in_brief": "as §1"}}, "note": "The other results are listed elsewhere or left out.", "data": [{"binder": "B1", "values": [{"measurement": "glycan array binding signal (z-score)", "setting": "[1]", "result": -0.492}, {"measurement": "glycan array binding signal (z-score)", "setting": "[2]", "result": 0.111}, {"measurement": "glycan array binding signal (z-score)", "setting": "[3]", "result": -0.691}, {"measurement": "glycan array binding signal (z-score)", "setting": "[4]", "result": -0.467}, {"measurement": "glycan array binding signal (z-score)", "setting": "[5]", "result": -0.122}, {"measurement": "glycan array binding signal (z-score)", "setting": "[6]", "result": -0.535}, {"measurement": "glycan array binding signal (z-score)", "setting": "[7]", "result": 1.1}, {"measurement": "glycan array binding signal (z-score)", "setting": "[8]", "result": -0.005}, {"measurement": "glycan array binding signal (z-score)", "setting": "[9]", "result": -1.1}, {"measurement": "glycan array binding signal (z-score)", "setting": "[10]", "result": -0.265}, {"measurement": "glycan array binding signal (z-score)", "setting": "[11]", "result": -0.202}, {"measurement": "glycan array binding signal (z-score)", "setting": "[12]", "result": -0.377}, {"measurement": "glycan array binding signal (z-score)", "setting": "[13]", "result": -0.54}, {"measurement": "glycan array binding signal (z-score)", "setting": "[14]", "result": -0.447}, {"measurement": "glycan array binding signal (z-score)", "setting": "[15]", "result": 1.23}, {"measurement": "glycan array binding signal (z-score)", "setting": "[16]", "result": 6.29}, {"measurement": "glycan array binding signal (z-score)", "setting": "[17]", "result": 0.319}, {"measurement": "glycan array binding signal (z-score)", "setting": "[18]", "result": 2.41}, {"measurement": "glycan array binding signal (z-score)", "setting": "[19]", "result": 0.009}, {"measurement": "glycan array binding signal (z-score)", "setting": "[20]", "result": -0.636}, {"measurement": "glycan array binding signal (z-score)", "setting": "[21]", "result": 0.097}, {"measurement": "glycan array binding signal (z-score)", "setting": "[22]", "result": -0.292}, {"measurement": "glycan array binding signal (z-score)", "setting": "[23]", "result": -0.372}, {"measurement": "glycan array binding signal (z-score)", "setting": "[24]", "result": -0.89}, {"measurement": "glycan array binding signal (z-score)", "setting": "[25]", "result": -0.309}, {"measurement": "glycan array binding signal (z-score)", "setting": "[26]", "result": 0.106}, {"measurement": "glycan array binding signal (z-score)", "setting": "[27]", "result": -0.961}, {"measurement": "glycan array binding signal (z-score)", "setting": "[28]", "result": -0.654}, {"measurement": "glycan array binding signal (z-score)", "setting": "[29]", "result": 1.3}, {"measurement": "glycan array binding signal (z-score)", "setting": "[30]", "result": 1.29}, {"measurement": "glycan array binding signal (z-score)", "setting": "[31]", "result": -0.911}, {"measurement": "glycan array binding signal (z-score)", "setting": "[32]", "result": -0.242}, {"measurement": "glycan array binding signal (z-score)", "setting": "[33]", "result": 0.01}, {"measurement": "glycan array binding signal (z-score)", "setting": "[34]", "result": 0.026}, {"measurement": "glycan array binding signal (z-score)", "setting": "[35]", "result": -0.636}, {"measurement": "glycan array binding signal (z-score)", "setting": "[36]", "result": -0.53}, {"measurement": "glycan array binding signal (z-score)", "setting": "[37]", "result": -0.114}, {"measurement": "glycan array binding signal (z-score)", "setting": "[38]", "result": -1.68}, {"measurement": "glycan array binding signal (z-score)", "setting": "[39]", "result": 2}, {"measurement": "glycan array binding signal (z-score)", "setting": "[40]", "result": -0.571}, {"measurement": "glycan array binding signal (z-score)", "setting": "[41]", "result": -0.313}, {"measurement": "glycan array binding signal (z-score)", "setting": "[42]", "result": -0.189}, {"measurement": "glycan array binding signal (z-score)", "setting": "[43]", "result": -0.261}, {"measurement": "glycan array binding signal (z-score)", "setting": "[44]", "result": -0.566}, {"measurement": "glycan array binding signal (z-score)", "setting": "[45]", "result": -0.125}]}]}
